Experimental data: the supplement of paper PMC9446081
Out of some 39,000 compounds screened, about 220 (0.56%) showed activity. The list shows a part of the results.

test system: Escherichia coli K-12 BW25113; experiment: relative growth (OD600 normalised to plate interquartile mean) (fraction); higher = less growth inhibition, active = 0.2 or less; details: 50 µM; LB; incubation time: overnight (16-24 h)
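Further: static incubation at 37 °C against the wild-type strain, values averaged over two biological replicates.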

Q: Which relative growth does the source give for `COc1ccc(-c2cnc3c(c2)C(=O)N([C@H](C)CO)C[C@@H](C)[C@H](CN(C)C(=O)C2CCOCC2)O3)cc1` here?
A: inactive: 0.991

Q: With `Cc1ccc(S(=O)(=O)N(C)C[C@@H]2Oc3c(NC(=O)c4cnccn4)cccc3C(=O)N([C@H](C)CO)C[C@@H]2C)cc1` as the compound, how does the relative growth read?
A: inactive: 1.01

Q: `C[C@@H]1CN([C@@H](C)CO)C(=O)c2cc(NS(=O)(=O)c3ccccc3)ccc2O[C@H]1CN(C)C(=O)Nc1cccc2ccccc12` was tested. Which relative growth did it give?
A: inactive: 0.979

Q: Which relative growth does the source give for `C[C@H]1CN([C@@H](C)CO)S(=O)(=O)c2ccc(C#Cc3ccccc3)cc2O[C@@H]1CN(C)S(=O)(=O)c1cn(C)cn1` here?
A: inactive: 1.03

Q: With `C[C@@H]1CN([C@H](C)CO)C(=O)c2cc(NC(=O)Nc3ccccc3)ccc2O[C@@H](C)CCCCO[C@@H]1CN(C)CC1CCCCC1` as the compound, how does the relative growth read?
A: inactive: 1.02

Q: With `O=C(CCCc1ccccc1)OCC(COC(=O)CCCc1ccccc1)OC(=O)CCCc1ccccc1` as the compound, how does the relative growth read?
A: inactive: 0.967

Q: Which relative growth does the source give for `COCCOC(=O)N1C(=O)[C@@]2(c3cc(C#CC4(O)CCCCCC4)ccc31)[C@H](C(=O)NC[C@H](O)c1ccccc1)[C@H]1C(=O)O[C@H](c3ccccc3)[C@H](c3ccccc3)N1[C@@H]2c1ccc(OCCO)cc1` here?
A: inactive: 1.01

Q: How did the relative growth turn out when `Nc1cc(N2CCCCC2)nc(N)[n+]1[O-]` was run?
A: inactive: 1.07

Q: `O=C(O)Cn1nnc(-c2ccccc2)n1` was tested. Which relative growth did it give?
A: inactive: 1.05

Q: Which relative growth does the source give for `O=C1CCC(C(=O)N2CSCC2C(=O)O)N1` (centres undefined) here?
A: inactive: 1.01

Q: `C[C@H](CO)N1C[C@H](C)[C@@H](CN(C)Cc2ccc(Cl)c(Cl)c2)Oc2c(NS(=O)(=O)c3ccc(F)cc3)cccc2C1=O` was tested. Which relative growth did it give?
A: inactive: 0.991

Q: Which relative growth does the source give for `C[C@H]1CCCCO[C@H](CN(C)C(=O)Nc2ccc(F)cc2)[C@@H](C)CN([C@@H](C)CO)C(=O)c2cc(NS(=O)(=O)c3ccc(F)cc3)ccc2O1` here?
A: inactive: 0.997

Q: With `C[C@@H]1CCCCO[C@@H](CN(C)S(=O)(=O)c2ccc(Cl)cc2)[C@H](C)CN([C@@H](C)CO)C(=O)c2cc(NC(=O)Nc3ccc(F)cc3)ccc2O1` as the compound, how does the relative growth read?
A: inactive: 1.02

Q: Which relative growth does the source give for `C[C@H](CO)N1C[C@H](C)[C@@H](CN(C)S(C)(=O)=O)Oc2cc(C#Cc3ccc(F)cc3)ccc2S1(=O)=O` here?
A: inactive: 1.02

Q: With `C[C@H](O)C#Cc1cnc2c(c1)C(=O)N([C@@H](C)CO)C[C@@H](C)[C@@H](CN(C)C(=O)CN1CCOCC1)O2` as the compound, how does the relative growth read?
A: inactive: 0.985

Q: With `CO[C@H]1O[C@@H](COC(C)=O)[C@@H](OC(C)=O)C(C#N)(C#N)[C@@H]1OC(C)=O` as the compound, how does the relative growth read?
A: inactive: 0.994

Q: Which relative growth does the source give for `C[C@@H]1CCCCO[C@@H](CN(C)Cc2ccc(Cl)c(Cl)c2)[C@@H](C)CN([C@@H](C)CO)C(=O)c2cc(NS(=O)(=O)c3ccccc3)ccc2O1` here?
A: inactive: 0.997

Q: For `C[C@H](CO)N1C[C@H](C)[C@H](CN(C)C(=O)CN(C)C)Oc2cc(-c3ccc(C#N)cc3)ccc2S1(=O)=O`, which relative growth is on record?
A: inactive: 0.972

Q: `Cc1noc(C)c1NC(=O)Nc1ccc2c(c1)C(=O)N([C@@H](C)CO)C[C@H](C)[C@H](CN(C)C(=O)Nc1ccc3c(c1)OCO3)OCCCC[C@H](C)O2` was tested. Which relative growth did it give?
A: inactive: 0.998

Q: For `C[C@H](CO)N1C[C@H](C)[C@@H](CN(C)S(=O)(=O)c2cn(C)cn2)Oc2c(NS(=O)(=O)c3ccccc3)cccc2C1=O`, which relative growth is on record?
A: inactive: 1

Q: Which relative growth does the source give for `CO[C@H]1CN(C)C(=O)c2cc(NC(=O)NC(C)C)ccc2OC[C@H](C)N(Cc2ccc(-c3ccccn3)cc2)C[C@@H]1C` here?
A: inactive: 1.01

Q: Which relative growth does the source give for `Cc1noc(C)c1NC(=O)Nc1ccc2c(c1)C(=O)N([C@H](C)CO)C[C@@H](C)[C@H](CN(C)C(=O)Nc1cccc3ccccc13)OCCCC[C@@H](C)O2` here?
A: inactive: 1.02

Q: `Cc1ccc(S(=O)(=O)Nc2ccc3c(c2)C(=O)N([C@@H](C)CO)C[C@@H](C)[C@H](CN(C)Cc2ccc(C(=O)O)cc2)OCCCC[C@H](C)O3)cc1` was tested. Which relative growth did it give?
A: inactive: 1.01

Q: How did the relative growth turn out when `CC1(C)OC2CC3C4CCC5=CC(=O)CCC5(C)C4(F)C(O)CC3(C)C2(C(=O)CCl)O1` (centres undefined) was run?
A: inactive: 0.978

Q: Which relative growth does the source give for `O=C(CCCCCNC(=O)OCc1ccc(CO[C@@H]2C[C@H](c3csc4ccccc34)C=C(C(=O)N3CCN(Cc4ccccc4)CC3)O2)cc1)NO` here?
A: inactive: 1

Q: For `COc1cccc(-c2ccc3c(c2)O[C@@H](CN(C)Cc2cncnc2)[C@H](C)CN([C@H](C)CO)S3(=O)=O)c1`, which relative growth is on record?
A: inactive: 1.02

Q: With `C[C@@H]1CN([C@@H](C)CO)C(=O)Cc2cc(NC(=O)CCCCCC(=O)Nc3ccccc3N)ccc2O[C@@H]1CN(C)C(=O)Nc1ccc(F)cc1` as the compound, how does the relative growth read?
A: inactive: 0.986

Q: How did the relative growth turn out when `Cc1ccc(S(=O)(=O)Nc2ccc3c(c2)CC(=O)N([C@@H](C)CO)C[C@H](C)[C@H](CN(C)S(=O)(=O)c2cccs2)O3)cc1` was run?
A: inactive: 1.01

Q: `O=c1[nH]c2ccccc2c2ccccc12` was tested. Which relative growth did it give?
A: inactive: 1

Q: Which relative growth does the source give for `C[C@H](CO)N1C[C@H](C)[C@@H](CN(C)C(=O)NC2CCCCC2)OCCCC[C@H](C)Oc2ccc(NC(=O)c3ccncc3)cc2C1=O` here?
A: inactive: 0.967

Q: For `C[C@@H]1CN([C@@H](C)CO)C(=O)c2c(c3ccccc3n2C)-c2ccccc2CO[C@@H]1CN(C)C(=O)c1cc(Cl)cc(Cl)c1`, which relative growth is on record?
A: inactive: 1.02

Q: For `C[C@H](CO)N1C[C@H](C)[C@@H](CN(C)Cc2ccc(C(F)(F)F)cc2)Oc2ccc(NC(=O)Nc3ccc4c(c3)OCO4)cc2CC1=O`, which relative growth is on record?
A: inactive: 1.07

Q: For `COc1ccc(CN(C)C[C@H]2Oc3ccc(NS(C)(=O)=O)cc3C(=O)N([C@@H](C)CO)C[C@@H]2C)cc1`, which relative growth is on record?
A: inactive: 1.06

Q: Which relative growth does the source give for `NC(=O)c1cccnc1N1CCN(C(=O)[C@@H]2CC(=O)N(C3CC3)C2)CC1` here?
A: inactive: 0.997

Q: `C[C@@H]1CCCCO[C@@H](CN(C)S(=O)(=O)c2ccc(Cl)cc2)[C@H](C)CN([C@H](C)CO)C(=O)c2cc(NS(=O)(=O)c3cccs3)ccc2O1` was tested. Which relative growth did it give?
A: inactive: 1.01

Q: How did the relative growth turn out when `C[C@H](CO)N1C[C@H](C)[C@H](CN(C)Cc2ccc(C(F)(F)F)cc2)Oc2ccc(NC(=O)Nc3ccc(C(F)(F)F)cc3)cc2C1=O` was run?
A: inactive: 0.96

Q: `COc1nn(C)cc1C(=O)N1CCN(C)CC1` was tested. Which relative growth did it give?
A: inactive: 0.998

Q: For `Cc1ccc(S(=O)(=O)Nc2ccc3c(c2)C(=O)N([C@H](C)CO)C[C@H](C)[C@H](CN(C)C(=O)Nc2c(C)noc2C)OCCCC[C@@H](C)O3)cc1`, which relative growth is on record?
A: inactive: 0.972

Q: With `O=C(O)CCN1CCCC1=O` as the compound, how does the relative growth read?
A: inactive: 0.975

Q: With `COc1ccc(S(=O)(=O)N(C)C[C@@H]2Oc3ccc(NS(=O)(=O)c4c(C)noc4C)cc3CC(=O)N([C@H](C)CO)C[C@@H]2C)cc1` as the compound, how does the relative growth read?
A: inactive: 0.996

Q: With `C[C@H]1CN([C@@H](C)CO)C(=O)Cc2cc(NC(=O)Nc3ccccc3)ccc2O[C@@H]1CN(C)C(=O)Nc1cccc2ccccc12` as the compound, how does the relative growth read?
A: inactive: 1.03

Q: How did the relative growth turn out when `COc1ccc(S(=O)(=O)N(C)C[C@H]2Oc3c(NS(=O)(=O)c4ccc(C)cc4)cccc3C(=O)N([C@H](C)CO)C[C@@H]2C)cc1` was run?
A: inactive: 1.04

Q: How did the relative growth turn out when `C[C@H]1CN([C@@H](C)CO)C(=O)Cc2cc(NC(=O)CCCCCC(=O)Nc3ccccc3N)ccc2O[C@@H]1CN(C)S(=O)(=O)c1cn(C)cn1` was run?
A: inactive: 1.02

Q: `Cc1ccc(S(=O)(=O)N(C)C[C@H]2Oc3ccc(NC(=O)CCCN(C)C)cc3CC(=O)N([C@H](C)CO)C[C@@H]2C)cc1` was tested. Which relative growth did it give?
A: inactive: 1.01

Q: With `COc1ccccc1[C@@H](NC(=O)C1CCN(CCOc2ccc(Cl)cc2Cl)CC1)c1ccccn1` as the compound, how does the relative growth read?
A: inactive: 0.961

Q: With `Cc1ccc(S(=O)(=O)N(C)C[C@H]2Oc3ccc(N(C)C)cc3CC(=O)N([C@H](C)CO)C[C@@H]2C)cc1` as the compound, how does the relative growth read?
A: inactive: 0.989

Q: `NC(=O)CC[C@H]1CCCNC1` was tested. Which relative growth did it give?
A: inactive: 0.986

Q: How did the relative growth turn out when `C[C@@H]1CN([C@@H](C)CO)C(=O)Cc2cc(N(C)C)ccc2O[C@@H]1CN(C)C(=O)Nc1ccc2c(c1)OCO2` was run?
A: inactive: 1

Q: For `Cc1ccc(S(=O)(=O)Nc2cccc3c2O[C@H](CN(C)C(=O)Nc2cccc4ccccc24)[C@H](C)CN([C@H](C)CO)C3=O)cc1`, which relative growth is on record?
A: inactive: 0.995

Q: `C[C@@H]1CN([C@H](C)CO)C(=O)c2cc(NC(=O)CCC(F)(F)F)ccc2O[C@H]1CN(C)Cc1ccc(-c2ccccc2)cc1` was tested. Which relative growth did it give?
A: inactive: 0.869

Q: For `C[C@@H]1CN([C@@H](C)CO)C(=O)Cc2cc(NS(=O)(=O)c3cccs3)ccc2O[C@@H]1CN(C)Cc1ccncc1`, which relative growth is on record?
A: inactive: 0.994

Q: `COc1ccc(NC(=O)N(C)C[C@H]2OCCCC[C@@H](C)Oc3ccc(NC(=O)Nc4c(C)noc4C)cc3C(=O)N([C@H](C)CO)C[C@@H]2C)cc1` was tested. Which relative growth did it give?
A: inactive: 1.02

Q: How did the relative growth turn out when `N=C(N)NC(=O)c1cnccn1` was run?
A: inactive: 0.995

Q: With `C[C@@H]1CN([C@H](C)CO)C(=O)c2cc(Br)cnc2O[C@H]1CN(C)C(=O)Nc1ccc(F)cc1` as the compound, how does the relative growth read?
A: inactive: 0.991

Q: For `COC(=O)c1c(C)cc(OC(=O)c2c(C)cc(O)c(C=O)c2O)c(C)c1O`, which relative growth is on record?
A: inactive: 0.867

Q: With `C[C@@H]1CCCCO[C@H](CN(C)Cc2ccc3c(c2)OCO3)[C@@H](C)CN([C@H](C)CO)C(=O)c2cc(NS(=O)(=O)c3ccccc3)ccc2O1` as the compound, how does the relative growth read?
A: inactive: 0.983

Q: Which relative growth does the source give for `C[C@H]1CN([C@@H](C)CO)C(=O)c2cc(NS(=O)(=O)c3cn(C)cn3)ccc2O[C@@H]1CN(C)S(=O)(=O)c1cn(C)cn1` here?
A: inactive: 0.985

Q: For `C[C@H](CO)N1C[C@H](C)[C@@H](CN(C)S(=O)(=O)c2cn(C)cn2)Oc2ccc(NS(=O)(=O)c3ccc(F)cc3)cc2C1=O`, which relative growth is on record?
A: inactive: 0.982

Q: With `COc1ccc(S(=O)(=O)N(C)C[C@H]2OCCCC[C@@H](C)Oc3ccc(NC(=O)C4CCCCC4)cc3C(=O)N([C@@H](C)CO)C[C@H]2C)cc1` as the compound, how does the relative growth read?
A: inactive: 1.05
